Publication PMC4336329 (PLoS ONE, 2015)
About 2,200 (0.71%) of roughly 310,000 compounds showed an effect of 50% or more. Effects have a minus sign here. Some of the results follow.

Molecular target: human ether-à-go-go-related gene (hERG) potassium channel (human, UniProt Q12809)
Test: primary screen, population patch clamp on CHO cells stably expressing hERG

Chain of human ether-à-go-go-related gene (hERG) potassium channel (Q12809 whole entry, looked up): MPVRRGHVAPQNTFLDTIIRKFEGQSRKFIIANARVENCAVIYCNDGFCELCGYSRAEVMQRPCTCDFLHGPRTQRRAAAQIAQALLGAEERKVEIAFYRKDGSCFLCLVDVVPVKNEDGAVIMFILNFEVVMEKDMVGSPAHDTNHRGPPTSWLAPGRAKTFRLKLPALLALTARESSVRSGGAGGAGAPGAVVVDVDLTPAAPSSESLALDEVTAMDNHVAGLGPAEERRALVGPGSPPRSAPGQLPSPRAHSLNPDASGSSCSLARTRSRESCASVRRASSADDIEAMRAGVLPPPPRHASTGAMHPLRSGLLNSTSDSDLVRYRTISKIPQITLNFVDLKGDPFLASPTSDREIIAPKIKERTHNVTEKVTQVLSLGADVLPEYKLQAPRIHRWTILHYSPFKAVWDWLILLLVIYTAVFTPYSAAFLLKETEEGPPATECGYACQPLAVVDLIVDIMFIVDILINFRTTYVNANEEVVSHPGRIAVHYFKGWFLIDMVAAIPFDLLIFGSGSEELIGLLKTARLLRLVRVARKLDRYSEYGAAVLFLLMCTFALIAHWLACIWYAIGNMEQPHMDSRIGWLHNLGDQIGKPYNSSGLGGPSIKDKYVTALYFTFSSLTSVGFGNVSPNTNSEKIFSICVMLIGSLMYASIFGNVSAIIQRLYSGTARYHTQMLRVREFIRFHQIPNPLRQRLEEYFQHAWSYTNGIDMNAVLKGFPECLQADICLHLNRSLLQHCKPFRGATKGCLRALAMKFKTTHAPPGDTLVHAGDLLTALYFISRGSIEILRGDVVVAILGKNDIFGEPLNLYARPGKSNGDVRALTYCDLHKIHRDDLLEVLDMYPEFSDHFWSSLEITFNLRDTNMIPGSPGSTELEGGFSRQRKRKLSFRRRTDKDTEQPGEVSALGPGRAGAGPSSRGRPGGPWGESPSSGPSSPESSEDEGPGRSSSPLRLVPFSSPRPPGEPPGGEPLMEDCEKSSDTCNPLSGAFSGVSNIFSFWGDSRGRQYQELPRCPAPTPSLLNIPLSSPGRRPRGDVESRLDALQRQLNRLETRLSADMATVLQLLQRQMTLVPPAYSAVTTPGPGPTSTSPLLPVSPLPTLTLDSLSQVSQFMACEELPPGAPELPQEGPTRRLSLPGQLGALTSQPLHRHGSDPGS

SMILES | hERG current change (%, negative = inhibition) at 1uM [%]
COc1ccc(CN(Cc2nc3ccccc3c(=O)[nH]2)C(=O)C(C)(C)C)cc1 | 18.8
CC(N=C1NS(=O)(=O)c2ccccc21)C(=O)N1CCc2ccccc2C1 (stereo not drawn) | 3.41
Cn1c(=O)c2cc(S(=O)(=O)NC(C(=O)Nc3cccc(F)c3)c3ccccc3)ccc2n(C)c1=O (stereo not drawn) | 10.3
CCOc1cc(S(=O)(=O)n2nc(C)cc2C)ccc1Br | 21.2
COC(C#CCCN(C)C)(c1ccccc1)c1ccccc1.Cl | 5.13
Cn1c(=O)[nH]c(=O)c2c1nc(SCCO)n2Cc1ccccc1Cl | 12.1
CCCCCCOC(=O)Sc1nc2ccccc2o1 | 3.83
COc1ccc(NS(=O)(=O)c2ccc(NC(C)=O)cc2)nn1 | 17.6
O=Cc1ccccc1OCCOc1ccccc1C=O | 2.18
O=C(O)C(=O)O.O=C(c1ccccc1)N1CCN(C2CCCCCC2)CC1 | -3.54
COc1cc(-c2noc(CCC(=O)Nc3cccnc3)n2)cc(OC)c1OC | 7.68
ClCC(Br)CBr (stereo not drawn) | 7.42
CCCCCOc1ccccc1C(=O)NCCCC(=O)O | 6.2
Cc1nc2cc3nc(C(F)(F)F)[nH]c3cc2[nH]1 | 7.77
Nc1ccc(C(=O)N/N=C\c2cc(N=Nc3cccc4ccccc34)ccc2O)cc1 | 20
CSc1cccc(NC(=O)CCCn2c(=O)c3cccn3c3cccnc32)c1 | -3.85
COCCN(C(=O)COC(=O)C1CC1C)c1c(N)n(Cc2ccccc2)c(=O)[nH]c1=O (stereo not drawn) | 12.6
COc1ccc2cc(C(=O)Nc3ccc(S(N)(=O)=O)cc3)sc(=O)c2c1OC | 17.8
O=C(c1cccs1)N1CCC(c2ccccc2)C1 (stereo not drawn) | 11.6
CC(C)C(=O)NCCSc1c[nH]c2ccccc12 | 15.4
Nc1nnc(SCc2cn3cc(Cl)ccc3n2)s1 | 5.8
CN1CCN(c2ccc(Cl)cc2NC(=O)/C=C/c2cccc(F)c2)CC1 | -35.4
O=C(N/N=C/c1ccccc1Cl)c1n[nH]c2c1CCCC2 | 18.1

SMILES | hERG current change (%, negative = inhibition) at 1uM [%]
CC(=O)Nc1cccc(-c2nnc(SCC(=O)N3CCCCC3)n2C)c1 | 5.5
Cc1c(N(C(=O)c2cnccn2)C2(C(=O)NC3CCCC3)CCCCC2)c(=O)n(-c2ccccc2)n1C | 5.91
COCCNC(=O)Nc1ccc2nc(-c3cccs3)c(-c3cccs3)nc2c1 | 10.9
COc1ccc(Cc2noc(CN(C)CCc3ccccc3)n2)cc1OC | 9.98
C=CCn1c(SCC(=O)c2cc(C)n(CCOC)c2C)nc2sc(C)c(C)c2c1=O | 13
Cn1c(CN2CCN(C(=O)c3ccco3)CC2)nc2cc([N+](=O)[O-])ccc21 | -12.2
COc1ccc(C(=O)Nc2c(O)ccc3ccccc23)cc1 | 16
CCC(=O)NC(Nc1ccccn1)(C(=O)OC)C(F)(F)F (stereo not drawn) | 15.4
CCCCCOc1ccc(C(=O)NC(C(=O)O)C(C)C)cc1 (stereo not drawn) | 15.4
CC(C(=O)N(C)c1ccccc1)N1CCN(C(=O)c2ccccc2)CC1.O=C(O)C(=O)O (stereo not drawn) | 15.4
O=C(NCCCN1CCOCC1)c1nn2c(C(F)(F)F)cc(-c3ccco3)nc2c1Cl | 9.8
Cc1ccc(S(=O)(=O)C(C#N)c2nc3ccccc3nc2OC(C)C)cc1 (stereo not drawn) | 3.16
C=CCNC(=O)/C(C#N)=C/c1cn(-c2ccccc2)nc1-c1cccs1 | -16
NS(=O)(=O)c1ccc(CCNC(=O)c2ccc3c(c2)OCO3)cc1 | 12.5
CC(C)CC(NC(=O)OC(C)(C)C)C(=O)O.O (stereo not drawn) | 10.9
CCCC1=C(C(=O)OCC)C(c2sccc2C)n2ncnc2N1 (stereo not drawn) | 12.9
CCOC(=O)c1c(C)nc2c(c1-c1ccccc1)C(=O)CC(C)(C)C2 | 11.7
N#Cc1c(NC(=O)C2CCCO2)sc2c1CCCCC2 (stereo not drawn) | 15.8
Cn1nccc1C(=O)N1CCN(c2ccccc2F)CC1 | 15.2
Cc1csc(N/N=C/c2ccc([N+](=O)[O-])cc2)n1 | 5.4
CC1CN(c2ccc([N+](=O)[O-])cc2C#N)CC(C)O1 (stereo not drawn) | -12.3
COc1cccc(Nc2nc(C)cc(C)c2C(N)=O)c1 | 14.2
O=C(NC1CCCCC1)c1ccc(OC2CCN(Cc3ccccn3)CC2)cc1 | -1.78

SMILES | hERG current change (%, negative = inhibition) at 1uM [%]
COC(=O)c1cc2ccsc2n1Cc1nc(-c2ccc(OC)cc2)oc1C | 16.9
O=C(CN1C(=O)c2ccccc2C1=O)NCc1ccccn1 | 11
CCOC(=O)CNC(=O)CSc1nc(N(C)C)nc(N2CCOCC2)n1 | 13.8
CN1C(C(=O)NCc2ccc(OC(F)(F)F)cc2)CC2Cn3c(nc4cc(Cl)c(Cl)cc43)C21 (stereo not drawn) | -22.4
CC(C)C[C@H](NC(=O)C1CC(=O)N(c2ccc3c(c2)OCCO3)C1)C(=O)N1CCCCC1 (stereo partly drawn) | 7.16
COc1ccccc1NC(=O)CC(=O)c1ccccc1 | 17.2
CC(C)Oc1ccc(N2CC(C(=O)NC3=NCCS3)CC2=O)cc1 (stereo not drawn) | 7.27
C=CCn1c(=O)c2c(C)c(C)sc2n2c(Nc3ccc(OC)cc3)nnc12 | 12.3
COc1ccc(N(CC(=O)NCCSCc2c(F)cccc2Cl)S(C)(=O)=O)cc1OC | 6.97
CCCCc1ccc(NC(=S)NN2CCOCC2)cc1 | 12.1
CCc1sc(NC(=O)c2cc3ccccc3oc2=O)nc1-c1cccs1 | 15.9
Cc1ccccc1CSc1nc2ccccc2c(=O)[nH]1 | 7.87
COc1cc(NC(=O)CSc2ncnc3scc(-c4ccccc4)c23)c(C(=O)O)cc1OC | 11.2
Nc1cc(N)nc(SCCc2ccccc2)n1 | 13
O=c1[nH]c(CN2CCN(c3ccccc3)CC2)nc2scc(-c3ccccc3)c12 | 9.06
Nc1cccc(Cl)c1N1CCOCC1 | 9
Cc1ccsc1CN(C(=O)c1ccc([N+](=O)[O-])cc1)C1CCS(=O)(=O)C1 (stereo not drawn) | -21
CN(C)/C=N/C(=S)Nc1ccccc1Cl | 16.3
COc1ccc(CNCC(O)(c2ccccc2)c2ccccc2)cc1 | -21.9
C=CCOc1ccc(/C(O)=C2\C(=O)C(=O)N(CCCOC)C2c2ccncc2)cc1 (stereo not drawn) | 7.57
COC(=O)/C(=C\C(=O)c1ccccc1)Nc1ccc(OC)cc1 | 15.2
Cn1ncc2cc(NC(N)=S)ccc21 | 10.3
CCCCN(CCCNC(=O)Cn1ncc2ccsc2c1=O)Cc1ccccc1 | -3.54

SMILES | hERG current change (%, negative = inhibition) at 1uM [%]
CCCOc1ccc(N2CC(C(=O)Nc3ccccc3OC)CC2=O)cc1 (stereo not drawn) | -2.8
CS(=O)(=O)c1nc(S(=O)(=O)c2ccc(Cl)cc2)c(N2CCN(CCO)CC2)s1 | 5.87
COc1cc(OC)c(C(=O)OCC(=O)N2CC(=O)Nc3ccccc32)cc1OC | 21.7
CC(=C1C(=O)c2ccccc2C1=O)N1CCN(Cc2ccccc2)CC1 | -7.59
COc1cc(/C=C/C(=O)OC(C)C(=O)Nc2c(C)n(C)n(-c3ccccc3)c2=O)ccc1O (stereo not drawn) | 7.6
CCc1sc(C(=O)N2CCCN(C)CC2)cc1Br | 0.098
O=C(O)COc1ccc(/C=N/NC(=O)C(O)(c2ccccc2)c2ccccc2)cc1 | 21.4
CCOc1ccc2[nH]c3nc(SCC(=O)NC4CC4)nnc3c2c1 | 13.8
COc1ccc(N2CCN(c3nc4ccccn4c(=O)c3C=O)CC2)cc1 | 2.34
CC(C)C(=O)NNC(=O)c1c(O)c2ccccc2[nH]c1=O | 9.75
COc1ccc(S(=O)(=O)N2CCC(C(=O)Nc3ccc4c(c3)OCCO4)CC2)cc1OC | 1.78
Nc1ccc(CSc2ccc(Cl)cc2)cc1 | -2.05
CCC(C(=O)NCC1CCCO1)N(C(=O)CNS(=O)(=O)c1ccccc1)c1ccc(F)cc1 (stereo not drawn) | 9.7
CCN(CC)C(=O)c1cccc(NC(=O)c2cc(-c3ccccn3)nc3ccccc23)c1 | 7.39
CC(=O)c1cccc(NC(=O)COc2cc3oc(=O)c(CC(C)O)c(C)c3cc2Cl)c1 (stereo not drawn) | -14.4
OCCC1CN(Cc2nc(-c3ccc(F)cc3)cs2)CCN1CCc1ccccc1 (stereo not drawn) | -69.3
COc1cc(/C=C/C(=O)N2CCN(C)CC2)cc(S(=O)(=O)N2CCc3ccccc32)c1OC.Cl | 0.264
Cc1ccc(NC(=O)C2CC(=O)n3ncnc3N2)cc1 (stereo not drawn) | -7.32
COc1cccc(-c2c(NC(C)=O)n(C)c3ccccc3c2=O)c1 | 11.4
COC(=O)C1=C(C)Nc2ncnn2C1c1ccc(C)o1 (stereo not drawn) | 4.93
CC(=O)c1ccc(NC(=O)CC(C)S(=O)(=O)c2ccc3c(c2)CCN3C(C)=O)cc1 (stereo not drawn) | 9.09
